Measurements: patent publication US10392630B2, “Plants having increased tolerance to herbicides” (BASF AGRO B.V., priority 2013, dated 2019)
Values joined by “and” are separate entries in the source; they are usually repeats but may differ in a detail not shown here. Equal entries are not always repeated.

Assays:
[1] = system: transgenic Arabidopsis thaliana plants; assay: Growth inhibition of transgenic Arabidopsis in 48-well plates, tolerance factor (Table 5, FIG. 2); conditions: growth inhibition seven to ten days after seeding
[2] = system: transgenic T0 corn events; assay: Herbicide injury of transgenic T0 corn events, greenhouse spray (Table 6a); set-up: key: 0 is no injury relative to an unsprayed wild type check; 9 is completely dead; conditions: 7 days after treatment
Description: Immature embryos were transformed according to the procedure outlined in Peng et al. (WO2006/136596). Plants were tested for the presence of the T-DNA by Taqman analysis with the target being the nos terminator which is present in all constructs. Healthy looking plants were sent to the greenhouse for hardening and subsequent spray testing. The plants were individually transplanted into MetroMix 360 soil in 4′ pots. Once in the greenhouse (day/night cycle of 27° C./21° C. with 14 hour day length supported by 600 W high pressure sodium lights), they were allowed to grow for 14 days. […] Herbicide injury evaluations were taken at 7, 14 and 21 days after treatment. Herbicide injury evaluations were taken 2, 7, 14 and 21 days post-spray to look for injury to new growth points and overall plant health. The top survivors were transplanted into gallon pots filled with MetroMix 360 for seed production. It will be acknowledged by the person skilled in the art that by replacing the natural transit peptide of an Alopecurus PPO2 comprising the sequence of SEQ ID NO: 2, against a heterologous transit peptide from Zea mays (SEQ ID NO: 8) or Sorghum bicolor (SEQ ID NO: 9), the native N-terminal end of SEQ ID NO: 2 is shortened by 7 amino acids. Therefore, preferred mutational sites at or corresponding to, for example, positions R137 or F438 on SEQ ID NO: 2, as described above in the description in greater detail, are identical to positions R130 or F431 in said fusion proteins. See e.g. construct named tp-ZeamaPPO2::AlomyPPO2_R130A_F431V in Table 6.

[3] = system: transgenic soybean cv Jake cuttings; assay: Herbicide injury of transgenic soybean cuttings from T0 plants (Table 7, FIG. 4); conditions: V2 spray, 1 week after treatment
Description: Soybean cv Jake was transformed as previously described by Siminszky et al., Phytochem Rev. 5:445-458 (2006). After regeneration, transformants were transplanted to soil in small pots, placed in growth chambers (16 hr day/8 hr night; 25° C. day/23° C. night; 65% relative humidity; 130-150 microE m-2 s-1) and subsequently tested for the presence of the T-DNA via Taqman analysis. After a few weeks, healthy, transgenic positive, single copy events were transplanted to larger pots and allowed to grow in the growth chamber. An optimal shoot for cutting was about 3-4 inches tall, with at least two nodes present. Each cutting was taken from the original transformant (mother plant) and dipped into rooting hormone powder (indole-3-butyric acid, IBA). The cutting was then placed in oasis wedges inside a bio-dome. The mother plant was taken to maturity in the greenhouse and harvested for seed. Wild type cuttings were also taken simultaneously to serve as negative controls. The cuttings were kept in the bio-dome for 5-7 days and then transplanted to 3 inch pots and then acclimated in the growth chamber for two more days. […] Herbicide injury evaluations were taken at 2, 7, 14 and 21 days after treatment.
The following gives a definition of the injury scores measured above: […]

[4] = biological target: Alopecurus mutant PPO (ALOMY), SEQ ID NO 2 with amino acid substitution; assay: PPO enzyme assay, dose-response (fluorescence), mutated Alopecurus PPO2; conditions: Table 3b
Description: Proto was purchased from Sigma-Aldrich (Milwaukee, Wis.). Protogen was prepared according to Jacobs and Jacobs (N. J. Jacobs, J. M. Jacobs, Assay for enzymatic protoporphyrinogen oxidation, a late step in heme synthesis, Enzyme 28 (1982) 206-219). Assays were conducted in 100 mM sodium phosphate pH 7.4 with 0.1 mM EDTA, 0.1% Tween 20, 5 μM FAD, and 500 mM imidazole. […] Dose response was measured between the inhibitor concentration range of 1.00E-05 M to 1.00E-12 M. The excitation and emission bandwidths were set at 1.5 and 30 nm, respectively. All assays were made in duplicates or triplicates and measured using a POLARstar Optima/Galaxy (BMG) with excitation at 405 nm and emission monitored at 630 nm. […] Values were measured for Alopecurus wildtype and mutant PPO (ALOMY) in comparison with Amaranthus wildtype and mutant PPO (AMARE): Results are shown in the following Tables 3: […]

[5] = transgenic Arabidopsis Am_PPO2_F438L
[6] = transgenic Arabidopsis Am_PPO2_F438M
[7] = transgenic Arabidopsis Am_PPO2_F438V
[8] = transgenic Arabidopsis Am_PPO2_R137L
[9] = transgenic Arabidopsis Am_PPO2_R137M
[10] = transgenic Arabidopsis Am_PPO2_R137V

C#CCN1C(=O)C(F)(F)Oc2cc(F)c(-n3c(=O)n(C)c(=S)n(C)c3=O)cc21 [BAS 850H]
TF (Tolerance Factor), relative tolerance rate (non-transgenic = 1.0) [1, 5]: >50
TF (Tolerance Factor), relative tolerance rate (non-transgenic = 1.0) [1, 6]: >50
TF (Tolerance Factor), relative tolerance rate (non-transgenic = 1.0) [1, 7]: >50
TF (Tolerance Factor), relative tolerance rate (non-transgenic = 1.0) [1, 8]: >50
TF (Tolerance Factor), relative tolerance rate (non-transgenic = 1.0) [1, 9]: >50
TF (Tolerance Factor), relative tolerance rate (non-transgenic = 1.0) [1, 10]: >50
Herbicide injury, 0 to 9 rating scale ([2]; T0 corn events AlomyPPO2_F438L, 100 g ai/ha + 1% (v/v) MSO at V2 stage): 4
Herbicide injury, 0 to 9 rating scale ([2]; T0 corn events AlomyPPO2_F438V, 100 g ai/ha + 1% (v/v) MSO at V2 stage): 5 and 4
Herbicide injury, 0 to 9 rating scale ([2]; T0 corn events AlomyPPO2_R137L, 75 g ai/ha + 1% (v/v) MSO at V2 stage): 5
Herbicide injury, 0 to 9 rating scale ([2]; T0 corn events AlomyPPO2_R137M, 50 g ai/ha + 1% (v/v) MSO at V2 stage): 5 and 6 and 4
Herbicide injury, 0 to 9 rating scale ([2]; T0 corn events AlomyPPO2_R137M, 100 g ai/ha + 1% (v/v) MSO at V2 stage): 5 and 6
Herbicide injury ([3]; AlomyPPO2_F438V T0 cuttings, BAS 850H 50 g ai/ha): 1
Herbicide injury ([3]; AlomyPPO2_F438V T0 cuttings, BAS 850H 75 g ai/ha): 5
Herbicide injury ([3]; AlomyPPO2_R137V T0 cuttings, BAS 850H 25 g ai/ha): 7 and 8
Herbicide injury ([3]; AlomyPPO2_R137V T0 cuttings, BAS 850H 50 g ai/ha): 9 and 8

CC(C)N(C)S(=O)(=O)NC(=O)c1cc(-n2c(=O)cc(C(F)(F)F)n(C)c2=O)c(F)cc1Cl [saflufenacil]
TF (Tolerance Factor), relative tolerance rate (non-transgenic = 1.0) [1, 5]: 1700
TF (Tolerance Factor), relative tolerance rate (non-transgenic = 1.0) [1, 6]: 2500
TF (Tolerance Factor), relative tolerance rate (non-transgenic = 1.0) [1, 7]: 1560
TF (Tolerance Factor), relative tolerance rate (non-transgenic = 1.0) [1, 8]: 3300
TF (Tolerance Factor), relative tolerance rate (non-transgenic = 1.0) [1, 9]: 3300
TF (Tolerance Factor), relative tolerance rate (non-transgenic = 1.0) [1, 10]: 1500
Herbicide injury, 0 to 9 rating scale ([2]; T0 corn events AlomyPPO2_R137M, 75 g ai/ha + 1% (v/v) MSO at V2 stage): 0
Herbicide injury ([3]; AlomyPPO2_F438M T0 cuttings, BAS 800H 25 g ai/ha): 9
Herbicide injury ([3]; AlomyPPO2_F438V T0 cuttings, BAS 800H 50 g ai/ha): 1
Herbicide injury ([3]; AlomyPPO2_F438V T0 cuttings, BAS 800H 100 g ai/ha): 6
Herbicide injury ([3]; AlomyPPO2_F438V T0 cuttings, BAS 800H 200 g ai/ha): 0
Herbicide injury ([3]; AlomyPPO2_R137L T0 cuttings, BAS 800H 100 g ai/ha): 4 and 3 and 5

OXADIARGYL
IC50 ([4]; SEQ ID NO 2, mutation L415M, F438M): 10.2 nM
IC50 ([4]; SEQ ID NO 2, mutation R137C): 0.711 nM
IC50 ([4]; SEQ ID NO 2, mutation R137N): 3.48 nM
IC50 ([4]; SEQ ID NO 2, mutation R137V, F438M): 17.8 nM
IC50 ([4]; SEQ ID NO 2, mutation R137Y, F438M): 14.6 nM
